Source: publication PMC6919601, “Identification of Plasmodium dipeptidyl aminopeptidase allosteric inhibitors by high throughput screening” (PLoS ONE, 2019)
Out of some 110,000 compounds screened, about 230 (0.21%) showed an effect of 50% or more. Some of the results follow.

molecular target: DPAP1 (Plasmodium falciparum, UniProt Q8IIJ9); assay: primary screen, percent inhibition; read by cleavage of a fluorogenic dipeptide substrate; higher = more effect of the substance; design: species or system P. falciparum D10 trophozoite lysates; single well
Sequence (Q8IIJ9 whole entry, looked up): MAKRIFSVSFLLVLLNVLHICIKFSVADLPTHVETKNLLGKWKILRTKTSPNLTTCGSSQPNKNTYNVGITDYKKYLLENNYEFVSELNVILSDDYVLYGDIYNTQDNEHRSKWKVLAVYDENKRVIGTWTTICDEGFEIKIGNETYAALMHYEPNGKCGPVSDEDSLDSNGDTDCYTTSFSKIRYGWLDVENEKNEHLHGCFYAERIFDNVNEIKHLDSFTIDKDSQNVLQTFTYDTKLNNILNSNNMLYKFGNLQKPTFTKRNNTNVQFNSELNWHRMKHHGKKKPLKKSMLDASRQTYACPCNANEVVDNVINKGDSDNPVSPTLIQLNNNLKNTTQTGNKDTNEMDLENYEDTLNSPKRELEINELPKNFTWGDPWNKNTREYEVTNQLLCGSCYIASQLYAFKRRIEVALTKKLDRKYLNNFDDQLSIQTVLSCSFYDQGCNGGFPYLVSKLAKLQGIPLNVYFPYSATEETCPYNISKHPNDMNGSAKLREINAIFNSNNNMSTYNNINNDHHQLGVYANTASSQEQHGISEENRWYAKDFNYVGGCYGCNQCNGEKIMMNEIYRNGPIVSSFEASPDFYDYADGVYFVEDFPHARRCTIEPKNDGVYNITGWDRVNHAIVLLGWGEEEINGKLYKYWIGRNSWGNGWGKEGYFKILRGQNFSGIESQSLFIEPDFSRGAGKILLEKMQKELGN
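Also: 30 min substrate incubation versus DMSO and 10 µM JCP410 controls.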

Row | Compound | % Inhibition @ 10 uM
1 | COc1ccc(-c2cc3nc(C)c(CCC(=O)Nc4ccc(Cl)cn4)c(C)n3n2)c(OC)c1 | 1.26%
2 | COc1ccc(CCC(C)NCCCn2ccnc2)cc1 (centres unmarked) | 1.88%
3 | CC(Oc1ccc(F)cc1)C(=O)Nc1ccc(S(=O)(=O)Nc2nccs2)cc1 (centres unmarked) | 1.08%
4 | CC(=O)N1N=C(c2c(O)nc3ccc(Cl)cc3c2-c2ccccc2)CC1c1ccco1 (centres unmarked) | 4.01%
5 | O=c1oc2cc(S(=O)(=O)NCCO)ccc2c2ccc(S(=O)(=O)NCCO)cc12 | -1.33%
6 | NCCSCC(=O)NC1C2CC3CC(C2)CC1C3 (centres unmarked) | -9.49%
7 | CCOc1cc(CN2CCN(S(C)(=O)=O)CC2)ccc1OC | 0.131%
8 | CCCOc1ccc(N2C(=O)CC(SCC(=O)Nc3ccc(Br)cc3)C2=O)cc1 (centres unmarked) | 11.2%
9 | O=C(Cn1c(C(Cl)(Cl)Cl)nc2ccccc2c1=O)c1ccccc1 | 17.1%
10 | CCCN(CCC)CCNC(=O)c1noc2c1COc1ccc(C)cc1-2 | -4.07%
11 | Cc1ccc(-c2cc(C(=O)O)c3cc(Br)ccc3n2)o1 | -1.1%
12 | CCOc1ccc(C2CC(c3c(O)cc(C)oc3=O)=Nc3ccccc3S2)cc1 (centres unmarked) | 7.12%
13 | O=C(O)c1ccc(NC(=O)c2cccc(N3C(=O)C4C5CCC(C5)C4C3=O)c2)cc1 (centres unmarked) | -5.31%
14 | COc1cc(CNC2CCCCC2OC)cc(OC)c1 (centres unmarked) | -1.54%
15 | Brc1cccc(CN2CCN(Cc3ccccc3)CC2)c1 | -3.71%
16 | OC1CCCN(Cc2ccc(Cl)cc2)C1 (centres unmarked) | -8.13%
17 | COC(=O)c1ccc(CSc2ccc(Oc3ccccc3)cc2)cc1 | -5.47%
18 | CSc1nc(O)c2cnn(-c3ccc(Cl)cc3)c2n1 | 1.9%
19 | Cc1ccc(S(=O)(=O)N(CC(=O)Nc2ccc(C(N)=O)cc2)Cc2ccc(Cl)cc2)cc1 | 1.19%
20 | CC(=O)C1=C(O)C(=O)N(c2ccc(O)cc2)C1c1ccccc1 (centres unmarked) | 1%
21 | CC(=O)c1cccc(NC(=O)Nc2ccccc2)c1 | -4.06%
22 | CC(C)C(NS(=O)(=O)c1ccc(/C=C/C(=O)O)cc1)C(=O)O (centres unmarked) | -5.19%
23 | COc1ccc(S(=O)(=O)N(CC(=O)Nc2cc(Cl)ccc2C)c2ccc(F)cc2)cc1OC | 1.94%
24 | Cn1c(NC(=O)C2CC3CCC2C3)cc(=O)n(C)c1=O (centres unmarked) | -6.57%
25 | CCS(=O)(=O)c1ncc(Cl)c(C(=O)Nc2sc3c(c2C(N)=O)CCCC3)n1 | -1.11%

Row | Compound | % Inhibition @ 10 uM
26 | CCOC(=O)c1c(N)nn(C(=O)Cc2ccccc2)c1-c1ccc(OC)cc1 | -1.05%
27 | COc1ccc(/C=C/C(=O)NCC(=O)N2CCC(N(C)C3CCCC3)CC2)cc1OC | -2.85%
28 | Cc1cc(C)c([N+](=O)[O-])c(C)c1-c1c(C#N)c(N)nc2c1CCCCC2 | -0.292%
29 | C=CCNC(=O)C(=O)Nc1cccc(C(F)(F)F)c1 | 1.29%
30 | COC(=O)C1=C(C)N(CC(C)C)C(=O)/C1=C\c1ccc(Cl)c(Cl)c1 | 1.72%
31 | CCOCCCNC(=O)C(C)Sc1ccccc1 (centres unmarked) | -2.21%
32 | Cc1ccc(CNC(=O)c2cnn3c(C)c(Cc4ccc(F)cc4Cl)c(C)nc23)cc1 | 1.16%
33 | C=CCn1c(SCc2csc(C)n2)nc2sc3c(c2c1=O)CCC3 | 2.38%
34 | COCCNC(=O)/C(C#N)=C/c1c(Oc2ccccc2Cl)nc2ccccn2c1=O | -6.23%
35 | CCOC(=O)C1=C(C)N=c2s/c(=C\c3cccnc3)c(=O)n2C1c1ccc2c(c1)OCO2 (centres unmarked) | -1.37%
36 | CC1=CSC2=NC(C(F)(F)F)(C(F)(F)F)NC(=O)N12 | -3.53%
37 | Cc1coc2cc3oc(=O)c(CC(=O)N4CCOCC4)c(C)c3cc12 | 4.13%
38 | O=C(CCC1CCCC1)Nc1ccccn1 | -4.61%
39 | CC(=O)NCc1nc2ccccc2n1C(C)c1ccccc1 (centres unmarked) | -4.07%
40 | CCS(=O)(=O)c1ncc(Cl)c(C(=O)N(Cc2ccc(OC)cc2)C2CCS(=O)(=O)C2)n1 (centres unmarked) | -1.11%
41 | Cc1ccc2nc3c(cc(C(=O)NCc4cccnc4)c(=N)n3C3CCCCC3)c(=O)n2c1 | 1.97%
42 | Cc1cc(C)cc(OC(C)C(=O)N(Cc2ccco2)C2CCS(=O)(=O)C2)c1 (centres unmarked) | 0.569%
43 | COc1cc(C(=O)N2CCN(C(=O)c3cc(-c4cccs4)[nH]n3)CC2)cc(OC)c1OC | -2.68%
44 | CCc1ccc(NS(=O)(=O)c2ccc(OC)cc2)cc1 | -1.62%
45 | CC1CCN(S(=O)(=O)c2ccc(NC(=O)Cc3ccc(F)cc3)cc2)CC1 | 1.83%
46 | Cc1nn(C)c(C(=O)N2CCc3ccccc32)c1Br | 5.03%
47 | Cc1ccc(OCc2nnc3sc(NC(=O)c4ccccc4)nn23)cc1 | 3.3%
48 | CC1CCN(Cc2nc3c(c(=O)n(C)c(=O)n3C)n2CC(=O)c2ccccc2)CC1 | 0.317%
49 | O=C1c2ccccc2C(=O)N1c1cnc(O)nc1O | -9.34%
50 | C=CCNC(=O)CN(c1ccccc1CC)S(=O)(=O)c1ccccc1 | -3.83%

Row | Compound | % Inhibition @ 10 uM
51 | Cc1ccccc1OCc1nc(C#N)c(NCCN2CCOCC2)o1 | -4.6%
52 | O=C(c1ccc([N+](=O)[O-])cc1Cl)N1CCCC1 | 2.13%
53 | COc1ccc(C2=NOC(C(=O)N3CCC(Cc4ccccc4)CC3)C2)cc1 (centres unmarked) | 1.42%
54 | Oc1nncn2c1c(-n1cccc1)c1c3c(sc12)CCCC3 | -3.34%
55 | Cc1cccc(-n2c(SCC(N)=O)nnc2-c2cccs2)c1C | -4.97%
56 | C[n+]1cccc(C2CCCCN2C(=O)C2(c3ccccc3)CCCC2)c1 (centres unmarked) | 0.222%
57 | COc1cccc(-n2c(SCC(=O)NCC3CCCO3)nc3nnc(C)c-3c2N)c1 (centres unmarked) | -2.17%
58 | Cc1cc(/C=C2/SC(=O)N(C)C2=O)c(C)n1-c1ccccc1 | -1.59%
59 | CN1CCN(C(=O)Cn2ncc3c4ccccc4n(Cc4cccc(Cl)c4)c3c2=O)CC1 | -1.58%
60 | Fc1ccc(-c2nnc3ccc(N4CCN(C(=S)NCc5ccccc5)CC4)nn23)cc1 | 1.89%
61 | COc1cccc(NC(=O)CN(c2ccccc2F)S(=O)(=O)c2ccccc2)c1 | -3.25%
62 | COc1cc(OC)c(C2Nc3ccc(C)cc3-c3cc(C)nn32)cc1OC (centres unmarked) | -9.31%
63 | COc1ccc(C(=O)Nc2ccccc2C(N)=O)cc1Br | -5.32%
64 | CN1CCN(CCCNC(=O)CCn2cnc3onc(-c4ccc(F)cc4)c3c2=O)CC1 | -3.08%
65 | Cc1ccc(N2C(=O)NC(=O)/C(=C/Nc3cc(C(=O)O)ccc3C)C2=O)cc1 | 5.89%
66 | CS(=O)(=O)CCC(C(=O)Nc1ccccc1)N1C(=O)c2ccccc2C1=O (centres unmarked) | -0.425%
67 | Cc1cccc(CCNC(=O)c2ccc(C/N=c3/c(N4CCCCC4)c(O)c3=O)cc2)c1 | -4.04%
68 | CCSc1nc(=O)c2c(n1C)NC(=O)CC2c1cc(F)cc(F)c1 (centres unmarked) | 0.596%
69 | Cc1cc(Cl)ccc1OCC(=O)Nc1ccc(S(=O)(=O)N2CCOCC2)cc1 | -2.03%
70 | Cc1nc2ccsc2c(=O)n1-c1cccc(Cl)c1 | 1.15%
71 | O=C(CN1C(=O)C2C3c4ccccc4C(c4ccccc43)C2C1=O)Nc1cccc(O)c1 (centres unmarked) | 0.605%
72 | Cc1noc(C)c1S(=O)(=O)N(C)CC(=O)NCc1ccccc1 | 12.7%
73 | COC(=O)c1c(NC(=O)C2COc3ccccc3O2)sc2c1CCCC2 (centres unmarked) | -2.6%
74 | O=C(Cn1ncc2c(=O)oc3ccccc3c21)N1CCC(N2CCCCC2)CC1 | -1.03%
75 | COc1cccc(C2CC(C(F)(F)F)n3ncc(C(=O)Nc4ccc(Br)cc4)c3N2)c1 (centres unmarked) | -1.65%

Row | Compound | % Inhibition @ 10 uM
76 | CC1=C(C)CC(C(=O)Nc2cccc(C)c2)C(C(=O)O)C1 (centres unmarked) | -0.872%
77 | OC(COc1ccc2c(c1)OCO2)CN1CCN(C(c2ccccc2)c2ccccc2)CC1 (centres unmarked) | 3.1%
78 | Cc1nc2c3ccccc3n3c(CCCC(=O)O)nnc3n2n1 | -2.92%
79 | Cc1ccsc1CN(C(=O)COc1cc(C)c(Cl)c(C)c1)C1CCS(=O)(=O)C1 (centres unmarked) | -2.85%
80 | COc1cccc(S(=O)(=O)Nc2ccc(C(=O)N3CCCC3)cc2)c1 | -1.26%
81 | CC(=O)Nc1ccc(NC(=O)C2CCCCC2C(=O)O)cc1 (centres unmarked) | 0.687%
82 | Cc1sc(NC(=O)c2ccc(F)cc2)c(C(N)=O)c1-c1ccccc1 | 9.06%
83 | CC#CCCC(=O)Nc1cccc(C(=O)O)c1 | -1.26%
84 | Cc1cccc(C)c1-n1nnnc1C1(Nc2cccc(O)c2)CCCCC1 | -2.66%
85 | NS(=O)(=O)c1ccc(Nc2nc(-c3ccc(Cl)cc3)cs2)cc1 | 2.5%
86 | O=C(Cc1cccs1)Nc1nc2ccccc2s1 | 1.7%
87 | CCc1ccc(NC(=O)CCCC(=O)Nc2ccc(CC)cc2)cc1 | 3.92%
88 | CSC1=N/C(=C\c2ccc(OCC(=O)O)cc2)C(=O)S1 | -2.65%
89 | O=C1C(Nc2cccc(O)c2)=C(N2CCCCC2)C(=O)c2ccccc21 | 0.162%
90 | Cc1ccsc1CN(C(=O)C1C(C=C(Cl)Cl)C1(C)C)C1CCS(=O)(=O)C1 (centres unmarked) | 0.569%
91 | O=C(OCc1nc2ccccc2[nH]1)c1cc(F)c(F)c(F)c1F | -2.19%
92 | Fc1ccc(CNc2ncnc3c2nc2n3CCCCC2)cc1 | 3.24%
93 | O=C(Cc1nn[nH]n1)NCc1ccccc1Cl | -1.59%
94 | CN(CC(O)c1ccccc1)C1CCC(c2ccccc2)CC1 (centres unmarked) | -3.8%
95 | CCc1ccc2oc(C(=O)NCc3ccncc3)cc(=O)c2c1 | -5.08%
96 | CC(C)(C)c1ccc(S(=O)(=O)NCc2ccc(C(=O)NCCc3ccccc3)cc2)cc1 | -1.99%
97 | Cc1cccc(-c2noc(CN(C(=O)C(C)(C)C)C3CCCCC3)n2)c1 | 3.74%
98 | N#CCCN1c2ccccc2Sc2ccc(C(F)(F)F)cc21 | -5.44%
